Assay results: the supplement of paper PMC10126150
Sequences with one replicate were seen in a single cluster, so their values are uncertain.

System: ATP
Test: switch fluorescence ratio, 500 uM ATP over buffer (Cy3 cluster intensity, sum of 5 cycles each) (fold (ratio)); higher = stronger signal-on switching upon ATP binding; sequences stand for … in TCGTCGGCAGCGTCAGATGTGTATAAGAGACAGTTTTTTTTTTTTTTTTTTTTTTTTT…TC
Conditions: aptamer strand: ATP DNA aptamer (quencher-CACCTGGGGGAGTATTGCGGAGGAAGG + anchor), 100 nM annealed; ATP concentration: 500 uM; one replicate
How it was run: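 After annealing to 100 nM quencher-labelled ATP aptamer, Cy3-labelled switching-strand clusters on a modified Illumina MiSeq flow-cell were imaged in selection buffer. A second image followed after 15 min with 500 uM ATP at 22 °C, and five such buffer/ATP cycles were done, each separated by NaOH stripping and re-annealing. The fluorescence ratio, averaged per switch-domain sequence, is summed target-cycle over summed buffer-cycle Cy3 intensity per cluster, with clusters outside 100-1000 RFU excluded.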
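Note: ATP exposure 15 min at 22 °C before imaging.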

TGGTACACCC was tested, and the switch fluorescence ratio was 1.13.

GGAGGGGCAG was tested, and the switch fluorescence ratio was 0.994.

With CTCATTTAAG the switch fluorescence ratio was 0.96.

In the case of CTGAAGAGGC, the switch fluorescence ratio is reported as 0.991.

With GCTAGTCAAG the switch fluorescence ratio was 0.984.

For TCCAACGAAT, the switch fluorescence ratio was 1.28.

GCAAACAGAC showed a switch fluorescence ratio of 1.04.

CTCGATTTT gave a switch fluorescence ratio of 0.983.

Sequence TTTAAGTAT has a switch fluorescence ratio of 1.

GCTAGCATTT was tested, and the switch fluorescence ratio was 1.03.

Work on TCTATGTCGA yielded a switch fluorescence ratio of 0.97.

Work on AGTTGCACCT yielded a switch fluorescence ratio of 1.03.

Sequence TCAAATGTAA has a switch fluorescence ratio of 1.01.

In the case of ACTTTTTC, the switch fluorescence ratio is reported as 1.03.

For CTGCTAGAGG, the switch fluorescence ratio was 1.

Sequence CTAAGTTTGT has a switch fluorescence ratio of 0.995.

CTGAAGGATG gave a switch fluorescence ratio of 0.959.

GTTTCGAACA was tested, and the switch fluorescence ratio was 0.991.

Sequence TTAAGGCTGC has a switch fluorescence ratio of 1.14.

Sequence TCGTGTTACG has a switch fluorescence ratio of 0.974.

Sequence TTCGAGACAG has a switch fluorescence ratio of 1.01.

TAATTGTTCT gave a switch fluorescence ratio of 1.01.

CGAGCGTATT gave a switch fluorescence ratio of 1.02.

In the case of TGCTCTATGT, the switch fluorescence ratio is reported as 0.983.

With CGGGCCCCCT the switch fluorescence ratio was 1.04.

Work on AATCTAGTTT yielded a switch fluorescence ratio of 1.

Sequence CTGTTATGAA has a switch fluorescence ratio of 1.01.

Sequence TAGACTAAAG has a switch fluorescence ratio of 0.991.

Sequence AAGTTGCTTT has a switch fluorescence ratio of 1.02.

GTGACTTATG was tested, and the switch fluorescence ratio was 0.919.

Sequence GGTAATCAGA has a switch fluorescence ratio of 1.01.

GCCTCACGGT was tested, and the switch fluorescence ratio was 1.01.

In the case of GTTACGATAT, the switch fluorescence ratio is reported as 1.2.

For CGGATCTTGA, the switch fluorescence ratio was 0.979.

Sequence GAAGGGTTGA has a switch fluorescence ratio of 1.

ATGACATCTC gave a switch fluorescence ratio of 0.985.

In the case of ACAAGTTCA, the switch fluorescence ratio is reported as 0.994.

In the case of ATAGTTCCCT, the switch fluorescence ratio is reported as 1.04.

CGGGTTCGGG was tested, and the switch fluorescence ratio was 1.02.

GAGATATCA showed a switch fluorescence ratio of 1.03.

GTGCTCAAAT gave a switch fluorescence ratio of 1.01.

With ACGAGGGTCC the switch fluorescence ratio was 1.11.

TGTTACAGGT gave a switch fluorescence ratio of 1.04.

With TGATACTGAA the switch fluorescence ratio was 1.02.

Work on CCTACGTGTA yielded a switch fluorescence ratio of 4.61.

CAACCTAGGT gave a switch fluorescence ratio of 0.989.

With AGTGAGGTTT the switch fluorescence ratio was 0.978.

GGGTGTGGAT gave a switch fluorescence ratio of 1.

GGGCTTACCG gave a switch fluorescence ratio of 0.967.

For TATATCCGTG, the switch fluorescence ratio was 0.968.

With CGTTAACGCT the switch fluorescence ratio was 1.01.

With GTCGTTTAGT the switch fluorescence ratio was 0.98.

TATAACTTT was tested, and the switch fluorescence ratio was 1.02.

TTTTACGTAA gave a switch fluorescence ratio of 1.44.

With GCTGCACAAA the switch fluorescence ratio was 0.984.

With AATTGGTCTG the switch fluorescence ratio was 0.996.

In the case of TACCCACTAG, the switch fluorescence ratio is reported as 1.43.

GATTGCAAAA showed a switch fluorescence ratio of 0.931.

In the case of TAACTTATAG, the switch fluorescence ratio is reported as 0.983.

TCCCCACACC was tested, and the switch fluorescence ratio was 1.17.

With CCAAATAAG the switch fluorescence ratio was 1.

For CGGGTCTCGC, the switch fluorescence ratio was 0.967.

ATCCGGGG gave a switch fluorescence ratio of 1.06.

GTTGTATGCT showed a switch fluorescence ratio of 0.94.

With GCGAACGGCC the switch fluorescence ratio was 1.03.

With CTCAGCAATT the switch fluorescence ratio was 3.01.

With GCGTAATCAG the switch fluorescence ratio was 1.02.

GCAGTACGCT showed a switch fluorescence ratio of 1.18.

For ACATTGCCGC, the switch fluorescence ratio was 1.04.

With ATATACCTTT the switch fluorescence ratio was 1.02.

In the case of AGATGGGAAA, the switch fluorescence ratio is reported as 0.96.

In the case of TTAGGGTTGC, the switch fluorescence ratio is reported as 0.975.

For TGACTTATAG, the switch fluorescence ratio was 0.956.

Sequence GGAGTATCAA has a switch fluorescence ratio of 0.974.

ACGTTTGTGC showed a switch fluorescence ratio of 0.966.

In the case of TTTTGTACA, the switch fluorescence ratio is reported as 1.01.

Work on CGTCACAAGG yielded a switch fluorescence ratio of 1.04.

With CTTAACGG the switch fluorescence ratio was 1.05.

With ATGTATATGA the switch fluorescence ratio was 0.997.

Sequence TGATCTACGT has a switch fluorescence ratio of 1.02.

In the case of ATTACCTAAT, the switch fluorescence ratio is reported as 1.05.

With AAGGAGAATG the switch fluorescence ratio was 1.

With GCCCTCAGCC the switch fluorescence ratio was 1.08.

In the case of AAGCCGGCTC, the switch fluorescence ratio is reported as 0.977.

GGTTATTTTC showed a switch fluorescence ratio of 1.03.
